# From PubChem BioAssay AID686978 (National Center for Advancing Translational Sciences (NCATS), 2013)
# Where “and” joins values, the source holds several entries; their conditions need not be identical. Identical values can stand only once. Among all 420,000 compounds or so, about 64,000 (15%) were called active. The shares of active, inactive and inconclusive entries below differ from those in the screen. Calls come from the whole dose curve; as a rule, active = well fitted inhibition curve with a large enough effect; inconclusive = small, poorly fitted or top-dose-only effect; inactive = flat fitted curve, though single readings scatter. A potency beside an inconclusive call is a rough fit, not a confirmed value.
# Assay: qHTS for Inhibitors of human tyrosyl-DNA phosphodiesterase 1 (TDP1): qHTS in cells in absence of CPT; note: nearly all actives have a fitted effect of over 55% in size
# Details: DT40 Tdp1-/- hTDP1 cells, no CPT, ATP luminescence, 48 h; activity change, negative = growth inhibition: at 46.2 µM (top of the series) unless noted
# How it was run: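 DT40 Tdp1-/-;hTDP1 cells, no CPT (DMSO vehicle only), 400 cells/well; compounds pin-transferred; ≥48 hr, 37 °C; CellTiter-Glo 30 min RT dark, luminescence read.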
# % is set by controls: 0 for no effect and ±100 for the full control effect; potency is the fitted concentration of half-maximal effect; tags give direction and shape of the fitted curve.
Structure (SMILES),Potency,"activity change, negative = growth inhibition"
O=C(Nc1ccccn1)c1cccs1,active: 25.9 µM,
Cc1c(CN(C)C(=O)c2nn(C)cc2[N+](=O)[O-])cnn1C,inactive,
CSCCC(NS(=O)(=O)c1ccc2c(c1)oc(=O)n2C)C(=O)NCc1ccc(F)cc1 (centres undefined),inactive,
CN(C)c1ccc(N/C=C/C(=O)c2ccco2)cc1,"inconclusive: 18.4 µM [inhibitor, single point]",
COc1ccc(C(=O)N2CCC[C@@]3(CCN(Cc4ccc(C#N)cc4)C3)C2)cc1,"inconclusive: 20.6 µM [inhibitor, single point]",
COc1cc(CNCc2ccccc2Cl)ccc1OCC(=O)NC1CCCCC1,"inconclusive: 29.1 µM [inhibitor, single point]",
CCCN1CCC(=O)N([C@H](CSc2ccccc2)CC(C)C)CC1,"inconclusive: 22.4 µM [inhibitor, single point] and inconclusive: 14.6 µM [inhibitor, single point]",
Cc1ccc(/C=N/Nc2nc(C(C)(C)C)cs2)o1,"inconclusive: 29.1 µM [inhibitor, single point]",
O=C1CC(C(=O)Nc2cc(Cl)ccc2Cl)n2ncnc2N1 (centres undefined),inactive,
CCOC(=O)C1CCN(C(=O)CCc2c(C)nc3cc(-c4ccccc4)nn3c2C)CC1,inactive,
O=C(CCc1ccccc1)NC(=S)Nc1ccc(S(=O)(=O)N2CCOCC2)cc1,active: 16.4 µM,
Cc1sc(NC(=O)c2cccc([N+](=O)[O-])c2)c(C(N)=O)c1-c1ccc(C(C)(C)C)cc1,active: 20.6 µM,
Cn1c(SCc2nc3ccccc3[nH]2)nnc1-c1ccccn1,,inconclusive: -31.7% [inhibitor]
COc1ccccc1C(C)NC(=O)c1ccccc1SCC(=O)N1CCCC1 (centres undefined),inactive,
O=C(Nc1nccs1)c1cccc(N2C(=O)c3cccc4c([N+](=O)[O-])ccc(c34)C2=O)c1,active: 3.66 µM,
CC(C)c1ccc(NC2CCCN(C(=O)c3ccsc3)C2)cc1 (centres undefined),active: 18.4 µM,
CN(C)CCN(Cc1ccccc1)S(=O)(=O)c1ccc(-c2cc(C(F)(F)F)on2)s1,active: 11.6 µM,
CCc1oc(C(=O)O)cc1COC,inactive,
Cc1ccc(CNC(=O)Cn2c(=O)cc(C)c3c(C)nn(-c4cccc(F)c4)c32)cc1,inactive,
Cc1noc(C)c1COC(=O)c1ccc(S(=O)(=O)NCc2ccco2)cc1,"inconclusive: 18.4 µM [inhibitor, single point]",
CCSc1ccccc1C(=O)N1CCN(Cc2ccc3c(c2)OCO3)CC1,inactive,
COc1cc(NC(=O)N2CCc3nc(NCc4cccc(Oc5ccccc5)c4)ncc3C2)cc(OC)c1OC,"inconclusive: 29.1 µM [inhibitor, single point]",
O=C(/C=C/Sc1ccccc1)c1ccc(Cl)cc1,active: 16.4 µM,
O=C(Cn1ncc2c3ccccc3n(Cc3cccc(Cl)c3)c2c1=O)NCCCN1CCCCC1,inactive,
Cn1cccc1Cc1nnc(SCC(=O)Nc2ccccc2F)n1CCc1ccccc1,inactive,

Structure (SMILES),Potency,"activity change, negative = growth inhibition"
COc1ccc(-c2nc3ccccn3c2Nc2ccccc2C)cc1,"inconclusive: 20 µM [inhibitor, single point]",
O=C(NCc1ccncc1)c1cccc(S(=O)(=O)N2CCc3ccccc32)c1,"inconclusive: 8.2 µM [inhibitor, partial curve]",
Cn1c(SCc2c(F)cccc2Cl)nc2c(c1=O)SCC2,"inconclusive: 14.6 µM [inhibitor, single point]",
CCOCCCNc1nc2c(S(=O)(=O)c3ccc(CC)cc3)nnn2c2ccc(Cl)cc12,"inconclusive: 25.9 µM [inhibitor, single point]",
NC(C(=O)O)c1ccc(P(=O)(O)O)cc1 (centres undefined),inactive,
COC(=O)c1cc(CSc2nc3ccc(C)cc3[nH]2)oc1C,active: 18.4 µM,
O=C(NCCc1ccccc1)C1CCN(Cc2cc3ccccc3n2Cc2ccccc2)CC1,active: 20.6 µM,
O=[N+]([O-])c1ccccc1Nc1c2ccccc2nc2ccccc12,"inconclusive: 20.6 µM [inhibitor, single point]",
Cc1ccc(CN2CCC(=O)N(Cc3ccccn3)CC2)c(C)c1,inactive,
COc1ccc(-c2cn3cccnc3n2)cc1NC(=O)Nc1cc(C)ccc1C,"inconclusive: 23.1 µM [inhibitor, single point]",
Cc1ccc2c(c1)N(C)/C(=C/c1cccc[n+]1C)S2,active: 0.517 µM,
Cc1ccnc(NC(=O)CCC(=O)N(CC(=O)NCc2ccccc2)c2ccc3c(c2)OCO3)c1,active: 23.1 µM,
Cc1ccc(C(=O)N2CCC(n3nccc3NC(=O)c3ccccc3C)CC2)cn1,inactive,
CCOc1cc(NC(=O)c2cccs2)c(OCC)cc1NC(=O)c1cccnc1,"inconclusive: 2.06 µM [inhibitor, partial curve]",
O=C(CCS(=O)(=O)c1ccc(Br)cc1)N1CCN(Cc2ccccc2)CC1,"inconclusive: 20.6 µM [inhibitor, single point]",
O=[N+]([O-])c1ccc(/C=C2\CCC(C3=CCCC3)=C2N2CCOCC2)cc1,active: 16.4 µM,
C#CCOCCOCCOCCNc1nc(N2CCN(C(=O)CCCCCCCCCCNC(=O)Cn3cc(CCCCCN)nn3)CC2)nc(N2CCN(C(=O)CCCCCCCCCCNC(=O)[C@@H](CCC(=O)O)n3cc(CCCCCN)nn3)CC2)n1,"inconclusive: 16.4 µM [inhibitor, single point]",
Cc1ccc(-n2nc(CC#N)c(C#N)c2N)cc1,inactive,
CCOc1ccccc1CN1CCc2nc(N3CCN(C)CC3)ncc2C1,"inconclusive: 29.1 µM [inhibitor, single point]",
C/C(=N\NC(=O)COc1ccccc1-c1ccccc1)c1cccnc1,active: 20.6 µM,
O=C(CCCO)NNc1c2ccccc2nc2ccccc12,"inconclusive: 23.1 µM [inhibitor, single point]",
COC(=O)c1ccccc1NC(=O)CSc1nnc(Cc2ccc(Cl)cc2)o1,"inconclusive: 16.4 µM [inhibitor, single point]",
CC(=O)c1ccc(NC(=O)c2noc3c2CCC3)cc1,inactive,
Cc1nc2cc(-c3ccccc3)[nH]n2c(=O)c1C,"inconclusive: 29.1 µM [inhibitor, single point]",
COc1cc(/C=C/C(=O)OCC(=O)Nc2sc3c(c2C#N)CCC(C)C3)ccc1OCC#N (centres undefined),"inconclusive: 23.1 µM [inhibitor, single point]",

Structure (SMILES),Potency,"activity change, negative = growth inhibition"
CCC1(c2ccc(F)cc2)NC(=O)N(CC(=O)NC2CC2)C1=O (centres undefined),inactive,
COc1ccc(N2C(=O)C(CC(=O)Nc3ccccc3)N(CCc3ccc(OC)c(OC)c3)C2=O)cc1 (centres undefined),inactive,
COc1ccc(COC(=O)C2=C(C)NC(=O)CC2c2cccc(Cl)c2Cl)cc1 (centres undefined),inactive,
CCOc1ccc(-c2cc(C(=O)NC(C)c3ccccc3)c3ccccc3n2)cc1 (centres undefined),"inconclusive: 20.6 µM [inhibitor, single point]",
CCS(=O)(=O)c1ccc2oc(SCC(=O)c3ccco3)nc2c1,,inconclusive: -31.8% [inhibitor]
COCc1cc(CN2CCN(C)CC2)c(O)c2ncccc12,active: 3.26 µM,
CN1C(C(=O)c2ccccc2)=C(NC(=O)c2ccc(F)cc2)c2ccccc2S1(=O)=O,"inconclusive: 16.4 µM [inhibitor, single point]",
CCC(CC)C(=O)N1N=C(c2ccc(NS(C)(=O)=O)cc2)CC1c1ccccc1 (centres undefined),"inconclusive: 23.1 µM [inhibitor, single point]",
O=C(NCCc1ccco1)c1cc(COc2cccc(C(F)(F)F)c2)on1,"inconclusive: 20.6 µM [inhibitor, single point]",
O=C(Nc1nnc(Cc2ccc(F)cc2)s1)Nc1ccccc1F,"inconclusive: 25.9 µM [inhibitor, single point]",
c1ccc2c(N3CCNCC3)nc(-c3ccoc3)nc2c1,inactive,
COC(=O)N1C(=O)[C@@](c2ccccc2)(C(C)C)N1C(=O)OC,"inconclusive: 16.4 µM [inhibitor, single point]",
O=C(NCc1ccccc1)C(c1cccnc1)N(C(=O)c1csnn1)c1ccc(F)cc1 (centres undefined),inactive,
COc1cccc(CN(C)CCCn2cnc(C(=O)Nc3ccc(C)c(C)c3)n2)c1,"inconclusive: 29.1 µM [inhibitor, single point]",
CC(=O)N(/N=C1\Sc2ccccc2C1=O)c1ccc(C)cc1C,,inconclusive: -30.9% [inhibitor]
O=C(Nc1cccc2c1CCCC2)c1cccc(F)c1,"inconclusive: 14.6 µM [inhibitor, partial curve, poor fit]",
Cc1ccc(S(=O)(=O)n2c(N)nc3ccccc32)cc1,inactive,
O=C(N/N=C/C(Cl)=C/c1ccccc1)c1ccc2c(c1)OCO2,active: 20.6 µM,
C/C(=N\OC(=O)c1c(-c2c(F)cccc2Cl)noc1C)c1nccs1,,inconclusive: -32.6% [inhibitor]
CC(C(=O)N1CCCCC1)N(C)CC(=O)Nc1ccc(F)c(F)c1F (centres undefined),inactive,
CCCCN(C(=O)CSc1nc2ccccc2s1)c1c(N)n(CCCC)c(=O)[nH]c1=O,"inconclusive: 18.4 µM [inhibitor, single point]",
CCCCOc1ccc(OC(=O)c2cccnc2)cc1,active: 16.4 µM,
Cc1nc(C)c(C(=O)N2CCCC(C(=O)c3cc(F)ccc3F)C2)s1 (centres undefined),"inconclusive: 7.31 µM [inhibitor, partial curve]",
N#Cc1ccccc1NC(=O)COc1ccccc1C(=O)Nc1ccccc1,"inconclusive: 25.1 µM [inhibitor, single point] and inconclusive: 29.1 µM [inhibitor, single point]",
